# Measured values taken from PubChem BioAssay AID686979 (National Center for Advancing Translational Sciences (NCATS), 2013).
# Hit rate of the full screen: of about 420,000 compounds, about 50,000 (12%) were called active. This list was built around the results that the source calls inconclusive (neither active nor inactive); the mix of calls is not that of the screen. The call rests on the fitted dose curve; in most records, active means well fitted inhibition curve with a large enough effect; inconclusive means small, poorly fitted or top-dose-only effect; inactive means flat fitted curve, though single readings scatter. Potencies of inconclusive entries are left out as doubtful fits.
# Experiment: qHTS for Inhibitors of human tyrosyl-DNA phosphodiesterase 1 (TDP1): qHTS in cells in presence of CPT; further: nearly all actives have a fitted effect of over 55% in size
# Details: chicken DT40 Tdp1-/-;hTDP1 cells + 20 nM CPT, ATP luminescence, 48 h; activity change, negative = growth inhibition: at 46.2 µM (top of the series)
# Outline: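 Chicken DT40 Tdp1-/- cells complemented with human TDP1, 400 cells/well, exposed to compounds plus 20 nM camptothecin for at least 48 h at 37 C; viability read as ATP content by CellTiter-Glo luminescence.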
# On the % scale 0 is the no-effect control and ±100 the full control effect; potency means the concentration at half of the fitted maximal effect; tags describe the fitted curve by direction and shape.
Compound,Potency,"activity change, negative = growth inhibition"
COc1ccc(CCN2C(=O)CN(C3CCCCCC3)C(=O)C2c2ccc(Cl)cc2)cc1OC (configuration not stated),"inconclusive [inhibitor, single point]",
COc1cc(/C=N/NC(N)=S)ccc1OCC(=O)Nc1ccc(C)c(C)c1,"inconclusive [inhibitor, single point]",
CCOc1ccccc1CNS(=O)(=O)c1ccc2c(c1)oc(=O)n2C,"inconclusive [inhibitor, single point]",
CCOc1ccc(N2CC(C(=O)NCc3cccc(C)c3)CC2=O)cc1 (configuration not stated),"inconclusive [inhibitor, single point]",
CCCN1CCN(C(=S)Nc2sc(CC)cc2C(=O)OC)CC1,,inconclusive: -32.5% [inhibitor]
Clc1ccc(CNc2ncnc3[nH]ncc23)cc1Cl,inactive,
Cc1ccc(SCc2nc3ccccc3n2CC(=O)Nc2ccccc2)cc1,"inconclusive [inhibitor, full curve]",
COc1ccc(-c2cccc(-c3cc(=O)oc4cc(OC)c(OC)c(OC)c34)c2)cc1,"inconclusive [inhibitor, single point]",
COc1cccc(N2C(=O)[C@H]3C(C(=O)c4cnccn4)=NN[C@H]3C2=O)c1,"inconclusive [inhibitor, partial curve]",
COc1ccccc1NC(=O)CSc1nnc(Cc2cccn2C)n1-c1ccc(F)cc1,inactive,
COc1ccccc1-c1cnc(C(O)c2cc(C)c(OC)c(C)c2)[nH]1 (configuration not stated),active: 23.1 µM,
O=C(c1ccco1)N1CCN(C(=O)C23CC4CC(CC(C4)C2)C3)CC1,"inconclusive [inhibitor, single point]",
C=CCN(CC=C)C(=O)C(=O)c1cc(C)n(-c2ccc([N+](=O)[O-])cc2)c1C,"inconclusive [inhibitor, partial curve]",
CC(C)[C@H](NC(=O)c1ccccc1)C(=O)OCC(=O)/C=C1/N(C)c2ccccc2C1(C)C,active: 10.3 µM,
O=C(O)c1ccc(/C=N/NC(=O)c2ccc(Br)cc2)cc1,inactive,
COc1ccc(C(C)=O)c(O)c1,"inconclusive [inhibitor, full curve]",
Cc1cc2nc(-c3ccc(Cl)cc3)c(CC3CCCCC3)n2c(C)c1Br,"inconclusive [inhibitor, single point]",
C/C(=N/NC(=O)c1ccc(C(C)(C)C)cc1)c1ccccn1,active: 0.461 µM,
CC1=C(C(=O)N(C(C)C)C(C)C)CC(CC(=O)NCCCCc2ccccc2)C(=O)N1Cc1ccccc1 (configuration not stated),"inconclusive [inhibitor, single point]",
COc1ccc(CCNC(=O)C2CC(c3ccccc3F)=NO2)cc1 (configuration not stated),inactive,
CN(C)c1ccc(/C=C2\C=Cc3cc([N+](=O)[O-])ccc32)cc1,"inconclusive [inhibitor, partial curve]",
COc1ccc(S(=O)(=O)N2CCOCC2)cc1NC(=O)Cc1sc(C)nc1-c1ccc(F)cc1,inactive,
COc1ccc(-c2cc(C(=O)Oc3ccc(C#N)cc3)no2)cc1,inactive,
CCN(CC(=O)N1CCC(C)CC1)S(=O)(=O)c1ccc(C)cc1,"inconclusive [inhibitor, single point]",

Compound,Potency,"activity change, negative = growth inhibition"
C=C(C)c1sc(-c2ccc(Cl)cc2)nc1C,inactive,
COc1ccc(N=Cc2c(O)n(-c3ccc(OC)cc3)c(=O)c3ccccc23)cc1,inactive,
O=C(NC1CCCCCCC1)C1CCCN(S(=O)(=O)c2cnc[nH]2)C1 (configuration not stated),,inconclusive: -31.4% [inhibitor]
CN(C)C=NC(=O)/C(C#N)=C1\CCc2ccccc2N1,"inconclusive [inhibitor, single point]",
O=C(Nc1cc(S(=O)(=O)N2CCOCC2)ccc1N1CCCC1)c1cc(=O)[nH]c2ccccc12,inactive,
O=C(C[n+]1ccc2ccccc2c1)c1ccc(NC(=O)c2ccccc2)cc1,active: 5.8 µM,
O=C(Nc1ccc(Cl)c(C(F)(F)F)c1)c1ccncc1,"inconclusive [inhibitor, partial curve]",
C[N+]1(CC(=O)c2ccc(-c3ccccc3)cc2)CCOCC1,,inconclusive: -30.6% [inhibitor]
COc1ccc(CNC(=O)C(CC(C)C)NS(=O)(=O)c2ccc3c(c2)CCN3C(C)=O)cc1 (configuration not stated),inactive,
CCC1CCCCN1C(=O)c1ccc([N+](=O)[O-])o1 (configuration not stated),"inconclusive [inhibitor, partial curve, poor fit]",
N#CCC(=O)N/N=C\c1cc(Br)ccc1OC/C=C/c1ccccc1,active: 14.6 µM,
CCOc1ccc(-n2ccnc(SCC(=O)Nc3cccc(OC)c3)c2=O)cc1,"inconclusive [inhibitor, single point]",
COc1cccc(CNCc2ccc(SC)cc2)c1OC,"inconclusive [inhibitor, partial curve]",
Cc1ccsc1-c1nc(CSCC(=O)NCc2ccc3c(c2)OCO3)c(C)o1,"inconclusive [inhibitor, single point]",
CCc1nn(-c2ccccc2)c2c1-c1cc(OC)c(OC)cc1C1(N2)C(=O)Nc2ccccc21 (configuration not stated),"inconclusive [inhibitor, single point]",
CCOC(=O)N1CCN(C(c2ccccc2)c2sc3nc(C)nn3c2O)CC1 (configuration not stated),inactive,
CC(C)(C)NC(=O)C(c1ccc(-c2ccccc2)cc1)N(C[C@H]1CC[C@@H]([C@@H]2CC[C@H](CO)O2)O1)C(=O)c1ccc(-c2ccccc2)cc1 (some centres not stated),"inconclusive [inhibitor, single point]",
CCOC(=O)Cc1csc(NC(=O)Nc2ccc(OC(F)(F)F)cc2)n1,"inconclusive [inhibitor, single point]",
COCCCNC(=O)Cn1c(=O)n(Cc2ccccc2Cl)c(=O)c2cc(OC)c(OC)cc21,"inconclusive [inhibitor, partial curve]",
O=C(Nc1nccs1)c1ccc(Cl)s1,inactive,
Cc1ccc2ccccc2c1NC(=O)CNCc1ccccc1,inactive,
O=C(NCCOCCn1c(=O)oc2ccccc21)Nc1ccc(F)cc1F,active: 10.3 µM,
CCCCOC(=O)c1ccc(S(N)(=O)=O)o1,inactive,
COc1ccc(Nc2nnc(-n3nc(C)cc3C)c3ccccc23)cc1,inactive,

Compound,Potency,"activity change, negative = growth inhibition"
C=C(C)c1cccc(C(C)(C)NC(=O)NC2CC(C)(C)NC(C)(C)C2)c1,"inconclusive [inhibitor, partial curve]",
COc1ccccc1N=Nc1ccc(O)c2ncccc12,active: 2.91 µM,
CCN1CCN(CCCNC(=O)Cn2cc3c(n2)CCCC3)CC1,inactive,
Clc1ncnc2scc(-c3ccccc3)c12,"inconclusive [inhibitor, partial curve]",
O=S1(=O)c2ccccc2N(Cc2ccc(F)cc2)c2ccccc21,"inconclusive [inhibitor, single point]",
C=CCN(C(=O)OC(C)(C)C)S(=O)(=O)NCc1ccccc1,inactive,
COc1ccc(C(=O)NN2CCOCC2)cc1,inactive,
CC(=O)NC(=S)Nc1ccccc1C(=O)Nc1ccccc1,inactive,
Fc1ccc(Oc2cnc3ccccc3n2)cc1,inactive,
O=C(NC1CCC(O)CC1)c1cc(-c2ccc(Cl)cc2)nc2ccccc12 (configuration not stated),"inconclusive [inhibitor, full curve]",
CCOCCCN(C)C1CCN(C(=O)c2oc3ccccc3c2NC(=O)COc2ccc(F)cc2)CC1,"inconclusive [inhibitor, single point]",
CCCSCCCNC(=O)c1sc2nc(C)cc(C)c2c1-n1cccc1,"inconclusive [inhibitor, single point]",
CCCn1cnc2cc(NCc3cccs3)ccc21,"inconclusive [inhibitor, single point]",
Cc1cccc2cc(C(c3nnnn3C(C)(C)C)N(Cc3ccco3)CC3CCCO3)c(=O)[nH]c12 (configuration not stated),"inconclusive [inhibitor, single point]",
CC(C(=O)NC1(C#N)CCCCC1)N(C)CC(=O)Nc1ccc(Cl)c(Cl)c1 (configuration not stated),"inconclusive [inhibitor, single point]",
CC(=O)Nc1ccc(S(=O)(=O)NCCS(=O)(=O)N2CCN(c3ccccc3)CC2)cc1,"inconclusive [inhibitor, partial curve]",
Cc1cc(-c2ccc(C)c(S(=O)(=O)NCCc3ccco3)c2)on1,inactive,
O=[N+]([O-])c1cc(S(=O)(=O)NCCc2ccccn2)ccc1Cl,inactive,
CC(=O)N1c2ccc(S(=O)(=O)N(C)CC(=O)NC(C)c3ccccc3)cc2CC1C (configuration not stated),"inconclusive [inhibitor, single point]",
COc1ccc(CNC(=O)c2cc3c(=O)n(Cc4ccc(OC)cc4)ccc3nc2C)cc1,"inconclusive [inhibitor, single point]",
COC(=O)C1=C(N)c2c(F)cccc2C1(C#N)c1ccc(F)cc1 (configuration not stated),"inconclusive [inhibitor, single point]",
CCCCCCNC(=O)CC(c1ccccc1)c1cc(Br)ccc1O (configuration not stated),"inconclusive [inhibitor, partial curve]",
Cc1cccc(NC(=O)CSc2nc3ccc(NC(=O)CCc4ccccc4)cc3s2)c1,"inconclusive [inhibitor, full curve]",
Cc1ccc(-c2nc(CS(=O)(=O)CC(=O)N3CCN(c4ccccc4)CC3)c(C)o2)cc1,"inconclusive [inhibitor, single point]",
